Experimental data reported in paper PMC4336329 (PLoS ONE, 2015).
Hit rate of the full screen: of about 310,000 compounds, about 2,200 (0.71%) showed an effect of 50% or more. The effect is printed as a negative number. This is one part of the list.

target: human ether-à-go-go-related gene (hERG) potassium channel (human, UniProt Q12809); experiment: primary screen, population patch clamp on CHO cells stably expressing hERG
Sequence (Q12809 whole entry, looked up): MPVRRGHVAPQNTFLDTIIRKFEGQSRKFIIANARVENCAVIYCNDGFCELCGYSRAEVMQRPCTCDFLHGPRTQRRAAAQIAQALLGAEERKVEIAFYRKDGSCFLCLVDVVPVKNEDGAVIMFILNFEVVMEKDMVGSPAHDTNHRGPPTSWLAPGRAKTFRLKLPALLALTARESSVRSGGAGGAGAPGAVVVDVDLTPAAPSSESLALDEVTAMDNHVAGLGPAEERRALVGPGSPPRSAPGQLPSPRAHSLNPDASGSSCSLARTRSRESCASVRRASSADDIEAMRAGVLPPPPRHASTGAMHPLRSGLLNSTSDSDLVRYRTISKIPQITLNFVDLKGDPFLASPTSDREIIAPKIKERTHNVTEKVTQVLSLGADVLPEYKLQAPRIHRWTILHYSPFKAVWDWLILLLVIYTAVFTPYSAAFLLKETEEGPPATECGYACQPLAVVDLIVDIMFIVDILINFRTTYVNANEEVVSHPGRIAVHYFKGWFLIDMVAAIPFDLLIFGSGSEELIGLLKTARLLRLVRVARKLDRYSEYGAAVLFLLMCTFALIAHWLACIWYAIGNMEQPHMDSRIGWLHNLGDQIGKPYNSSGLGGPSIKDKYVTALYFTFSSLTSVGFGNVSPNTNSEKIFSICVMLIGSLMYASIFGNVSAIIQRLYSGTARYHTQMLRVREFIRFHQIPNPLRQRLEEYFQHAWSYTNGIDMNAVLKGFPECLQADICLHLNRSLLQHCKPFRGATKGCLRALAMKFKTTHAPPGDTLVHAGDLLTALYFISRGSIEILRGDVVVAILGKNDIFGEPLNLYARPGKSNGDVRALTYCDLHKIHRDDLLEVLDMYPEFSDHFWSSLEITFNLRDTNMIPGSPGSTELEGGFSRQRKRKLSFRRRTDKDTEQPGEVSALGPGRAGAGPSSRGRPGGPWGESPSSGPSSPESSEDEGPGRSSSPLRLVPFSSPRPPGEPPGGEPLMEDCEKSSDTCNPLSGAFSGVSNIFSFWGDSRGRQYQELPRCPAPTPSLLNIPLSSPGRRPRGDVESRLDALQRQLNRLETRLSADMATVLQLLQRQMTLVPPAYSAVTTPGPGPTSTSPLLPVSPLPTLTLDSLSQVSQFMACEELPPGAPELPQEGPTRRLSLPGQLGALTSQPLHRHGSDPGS

| Compound | hERG current change (%, negative = inhibition) at 1uM [%] |
| --- | --- |
| CCCCCCn1c(N2CCCC2)nc2c1c(=O)[nH]c(=O)n2C | -7.89 |
| Cc1nn(CC2CCCCC2)c(N)c1-c1ccccc1 | -1.03 |
| O=C(CCNS(=O)(=O)c1cccc2nonc12)NC1CCCCCC1 | 7.69 |
| CC(C)CCNC(=O)c1cc(-c2cccs2)nc2ccccc12 | 2.51 |
| CC(=O)Nc1cccc(OCc2c(F)cccc2Cl)c1 | 4.98 |
| Cc1cc(C(=O)N/N=C/c2ccc(OCc3ccccc3)cc2)c(C)o1 | 14.6 |
| NC(=O)NNC1=Nc2cccc3cccc1c23 | 3.23 |
| Cn1c(Cn2cnc3ccccc32)nc2ccccc21 | 12.4 |
| COC(=O)C1CCN(S(C)(=O)=O)CC1 | 1.7 |
| COc1ccc(NC(=O)C2CCC(C)(C(=O)O)C2(C)C)cc1 (centres unmarked) | 11.1 |
| Cc1onc(-c2ccccc2Cl)c1C(=O)NCCCN1CCOCC1 | 12.9 |
| C[C@@H]1CN(C(=O)c2nc3ccc(Cl)cn3c2CN(C)CCc2cnn(C)c2)C[C@H](C)O1 | 12.3 |
| O=C(Nc1ccc2ccccc2c1)N1CCN(c2ncccc2C(F)(F)F)CC1 | -1.48 |
| CCOc1ccccc1Nc1nc2ccccc2[nH]1 | 10.5 |
| CN1CCC(=O)N([C@H](CN=[N+]=[N-])Cc2ccccc2)CC1 | 13.9 |
| CCOc1cc(NC(=S)NCC2CCCO2)c(OCC)cc1NC(=O)c1ccccc1F (centres unmarked) | 8.15 |
| CC1(C)C(=O)C2(CCCC2)C(=O)OC1c1ccco1 (centres unmarked) | -7.59 |
| Cc1ncc(CN2CCCC(C(=O)Nc3ccc(-c4cscn4)cc3)C2)cn1 (centres unmarked) | 1.21 |
| N#Cc1ccc(NC(=O)CN2C(=O)NC3(CCCC3)C2=O)cc1 | 3.38 |
| CCN(CC)C(=O)CP(=O)(c1ccccc1)c1ccccc1 | 12.2 |
| O=C(Nc1cccc2ccccc12)N(CCO)C1CCS(=O)(=O)C1 (centres unmarked) | 15.7 |
| C=C(C)[C@@H]1CC[C@]2(C(=O)O)CC[C@]3(C)C(CCC4[C@@]5(C)CC[C@H](O)C(C)(C)C5CC[C@]43C)C12 (some centres unmarked) | 5.29 |
| Cc1ccccc1CC1(CO)CCCN(Cc2ccc(C#CC(C)(C)O)cc2)C1 (centres unmarked) | 6.78 |

| Compound | hERG current change (%, negative = inhibition) at 1uM [%] |
| --- | --- |
| O=C(CCCN1C(=O)/C(=C\c2cccs2)SC1=S)NNC(=O)c1cccnc1 | 17.5 |
| CCOc1ccc2c(c1)C(c1ccc(C)o1)=NNC(c1ccncc1)=N2 | 13.8 |
| CC(=O)O.O=C(O)c1ccc(-c2nc(-c3ccccc3)c(-c3ccccc3)[nH]2)cc1 | 7.3 |
| COCCNC(=O)c1ccc2snnc2c1 | 9.44 |
| CCC(C(=O)NC1CCCCCC1)n1nc(C)c2c(C)n(-c3ccccc3)nc2c1=O (centres unmarked) | -3.48 |
| O=C(NNc1ccccc1[N+](=O)[O-])NC1CCCCC1 | 13.6 |
| Cn1cccc1C(=O)C(=O)Nc1ccccc1 | 8.22 |
| CCOC(=O)N1CCN(c2ccc(O)cc2)CC1 | 9.98 |
| Cc1ccc(C)c(NC(=S)N2CCCC2)c1 | 11 |
| CSc1ncccc1C(=O)OCC(=O)N(CC(C)C)C1CCS(=O)(=O)C1 (centres unmarked) | 4.63 |
| Cn1c(=O)c2c3c(sc2n2cnnc12)CCC3 | 6.74 |
| Cc1ccc(-c2nnc(CSc3nncn3N)o2)cc1 | 13.7 |
| COc1ccc(S(=O)(=O)N2CCOC23CCN(C(=O)c2ccccc2Br)CC3)cc1 | 12.6 |
| C[C@H](C(O)c1ccccc1)N(C)C(=O)CN (some centres unmarked) | 3.45 |
| CCOC(=O)c1sc(N=Nc2c(O)[nH]c(=O)[nH]c2=O)c(C(=O)OCC)c1C | 15.2 |
| CCN(CC)C(=O)CSc1nc2cc3c(cc2c(=O)n1CCCC(=O)NCc1ccc(OC)cc1)OCO3 | 11.6 |
| COc1ccc(S(=O)(=O)Nc2c3ccccc3nc(=O)n2-c2ccccc2)cc1 | 10.3 |
| O=C(Nc1nnc(-c2cccnc2)s1)c1cccs1 | 10.3 |
| CCCc1cc(=O)[nH]c2nnc(SCC(=O)NC3CCCCC3)n12 | 0.286 |
| Cc1nn(C(=O)N2CCCCC2)c(C)c1CN1C(=O)c2ccccc2C1=O | 16.9 |
| Cn1nc(C(F)(F)F)c(-c2ccc(F)cc2)c1NC(=O)c1ccco1 | 3.91 |
| CCOC(=O)c1ccc(S(=O)(=O)N2CCN(C(=O)c3nn(C)c(=O)c4ccccc34)CC2)cc1 | -18.2 |
| COc1ccc(-c2n[nH]c(C(F)(F)F)c2-c2cc3ccccc3o2)c(O)c1 | 7.94 |

| Compound | hERG current change (%, negative = inhibition) at 1uM [%] |
| --- | --- |
| CCOC(=O)c1c(C)c(C(=O)N2CCCCCC2)c(C)n1C | 7.19 |
| N#CC(c1ccccc1)(c1ncc(C(F)(F)F)cc1Cl)N1CCOCC1 (centres unmarked) | 7.36 |
| CCc1c(C)sc(NC(=O)C2CC2)c1C(=O)OC(C)C | 8.86 |
| CCc1ccc[n+](-c2[nH]c(=O)sc2/C=N/N=C(\[O-])c2cccnc2)c1 | 12.9 |
| COc1ccc(CCN2C(=O)c3[nH]nc(-c4ccccc4O)c3C2c2cccc(O)c2)cc1OC (centres unmarked) | -3.23 |
| Cc1ccc(Cl)cc1NC(=O)c1cc2ccccc2cc1O | 3.42 |
| CCN(CC)c1ccc(C2Nc3cccc4cccc(c34)N2)c(O)c1 | 19.6 |
| Cn1c(=O)cc(OCC(=O)N2CCN(C3CCCCC3)CC2)c2ccccc21 | -2.06 |
| CC1(OC(=O)CCc2ccccc2)C(=O)C=C2C=C(c3ccc(C#N)cc3)N(Cc3ccccc3)C=C2C1=O (centres unmarked) | 8.3 |
| Cn1ccsc1=NC(=O)c1ccc(OC(F)(F)F)cc1 | 8.43 |
| Cc1ccc(S(=O)(=O)N(C)Cc2ccc(C(=O)N/N=C3\CCCC(=O)C3)cc2)cc1 | 11.1 |
| O=S(=O)(Nc1nc2ccccc2nc1N1CCc2ccccc2C1)c1ccc(Cl)cc1 | 9.53 |
| CCc1nnc(NS(=O)(=O)c2ccc(NC(=O)c3ccc(C#N)cc3)cc2)s1 | 17.1 |
| CCOC(=O)N1CCC(NC(=O)C2CCN(C(=O)N3CCOc4ccccc43)CC2)CC1 | 10 |
| COc1ccccc1C(=O)C1CCCN(Cc2cnc(C)s2)C1 (centres unmarked) | 3.84 |
| Fc1ccc(/C=N/n2c(C3CCCCC3)n[nH]c2=S)cc1 | 22.5 |
| Cc1cccc(C)c1NC(=O)C1(NC(=O)C2CCC(=O)N2)CCCCC1 (centres unmarked) | 10.7 |
| CC1CC(C)CN(c2ncc3c(n2)CC(c2ccc(Cl)cc2)CC3=O)C1 (centres unmarked) | 9.06 |
| Cn1cc(C(=O)N2CCCCCC2)c(=O)c2cc(S(=O)(=O)N3CCCCC3)ccc21 | 13.4 |
| O=S1(=O)C=C(Oc2ccc3ccccc3c2)c2ccccc21 | 10.6 |
| Cn1c(=O)[nH]c(=O)c2c1nc(N1CCCC1)n2CCCSc1nnnn1-c1ccccc1 | -5.96 |
| Cc1cc(NC(=O)c2ccc3[nH]c(C)c(C)c3c2)ccn1 | 9.8 |
| COc1ccc(C(=O)NCc2ccccc2OC)cc1 | 3 |

| Compound | hERG current change (%, negative = inhibition) at 1uM [%] |
| --- | --- |
| CCOC(=O)c1ccc(NC(=O)CSc2nnc(CNC(=O)c3ccco3)o2)cc1 | 25 |
| CCN(CC)C(=O)Sc1cccc2cccnc12 | 14.3 |
| CC1(C)CC(CCNS(=O)(=O)c2ccccc2)(c2ccccc2)CCO1 (centres unmarked) | 14.4 |
| CCCC(=O)Nc1ccc(C(=O)COC(=O)C2CC2C)cc1 (centres unmarked) | 12.1 |
| Cc1cccc2sc(NC(=O)C3CC3)nc12 | 12.4 |
| COC(=O)c1ccccc1NC(=O)C1CCN(S(=O)(=O)c2cc(OC)ccc2OC)CC1 | 3.62 |
| Cc1cccc(-c2nc(CS(=O)CC(=O)NCC3CCCO3)c(C)o2)c1 (centres unmarked) | 0.84 |
| COCCOC(=O)C1=C(C)OC(N)=C(C#N)C1c1ccc2c(c1)OCO2 (centres unmarked) | -2.99 |
| CC(C)n1c(SCC(=O)Nc2nncs2)nnc1-c1ccco1 | -12.1 |
| NS(=O)(=O)c1ccc(CCNC(=O)CCCNC(=O)c2ccc(Cl)cc2)cc1 | 17.4 |
| O=C(CCS(=O)(=O)c1cccs1)Nc1ccc(C(=O)NC2CCCC2)cc1 | 14.6 |
| CCOc1ccc(CNC(=O)C2Cc3cc(S(=O)(=O)N4CCCC4)ccc3N2C(C)=O)cc1 (centres unmarked) | 1.72 |
| O=S(=O)(Cc1ccc(Cl)cc1)CC(O)COCc1ccccc1 (centres unmarked) | 11.5 |
| COc1ccc(C)cc1NC(=O)C1CCN(S(=O)(=O)c2cccc3nonc23)CC1 | 14.2 |
| CCCCCn1c(=O)[nH]c2cc(C(=O)N3CCN(C(=O)OCC)CC3)ccc2c1=O | 10.9 |
| Cc1ccc(C(C(=O)Nc2ccc3c(c2)OCO3)N(C)C(=O)Cc2c[nH]c3ccccc23)cc1 (centres unmarked) | 14 |
| COc1cc(C)ccc1OCc1cc(C(=O)N(Cc2c(C)nn(C)c2C)C2CC2)no1 | 2.87 |
| COc1cc(NC(=O)c2cccc(C)c2)ccc1NC(=O)c1cc2ccccc2o1 | -2.99 |
| COc1ccc(-c2nnc(SCC(=O)NCc3ccco3)n2C)cc1 | 9.66 |
| COc1ccc2[nH]c(=O)c(CN(c3ccccc3OC)S(=O)(=O)c3ccccc3)cc2c1 | 7.5 |
